Data published in the supplement of paper PMC4166925.
± gives the standard deviation of the averaged measurements. The full ranking holds about 33,000 sequences; the median of “E-score (dimensionless, -0.5 to 0.5)” is about -0.049, and the highest 2% start at about 0.37. This is one part of the list.

Test system: T1, PmTbr T-box DNA-binding domain (GST fusion)
T1 sequence: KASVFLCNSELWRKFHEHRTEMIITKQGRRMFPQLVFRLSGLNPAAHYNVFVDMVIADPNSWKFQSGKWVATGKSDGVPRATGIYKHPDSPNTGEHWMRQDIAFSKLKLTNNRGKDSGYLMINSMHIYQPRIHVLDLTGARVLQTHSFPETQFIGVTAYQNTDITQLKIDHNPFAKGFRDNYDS
Assay: PBM E-score of 8-mer (E-score (dimensionless, -0.5 to 0.5)); Tbr is Tbrain of the sea star Patiria miniata (Pm) or the sea urchin Strongylocentrotus purpuratus (Sp); higher = stronger binding preference; most listed sequences are background and not binding sites
Settings: the construct has about 5 more residues each side
Summary of the method: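 Universal Agilent oligonucleotide arrays, made double-stranded by primer extension, were incubated with 200 nM GST-fused Tbr T-box DNA-binding domain in PBS (pH 7.5). The protein was expressed in BL21 E. coli at 20 °C and purified by glutathione affinity chromatography. After scanning and quantification, the Universal PBM Analysis Suite assigned an enrichment E-score to each ungapped 8-mer, averaged over duplicate arrays.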

Row | Sequence | PBM E-score of 8-mer
1 | AACTCGCT | 0.0278 ± 0.052
2 | TACGATAA | 0.0904 ± 0.12
3 | CAAATTTC | -0.0301 ± 0.043
4 | AGCTCGCA | 0.283 ± 0.026
5 | GACCACTC | -0.0354 ± 0.022
6 | AGCATCAT | -0.213 ± 0.013
7 | ACATACCG | 0.0185 ± 0.022
8 | CTCGCGAA | 0.368 ± 0.0047
9 | AAAGGAAG | -0.0957 ± 0.051
10 | GCCTGATA | -0.158 ± 0.022
11 | GTACCTCA | 0.132 ± 0.0091
12 | CTAGGCAC | 0.0756 ± 0.0076
13 | GACCTTAC | -0.313 ± 0.028
14 | CGTGAATA | 0.296 ± 0.038
15 | CCCTATAC | -0.277 ± 0.0063
16 | CCCGGTGC | -0.0156 ± 0.011
17 | ACCCCAAG | -0.0413 ± 0.013
18 | ATCGGACA | 0.057 ± 0.047
19 | CGGAAGCA | -0.257 ± 0.062
20 | ATTGGCGG | 0.036 ± 0.0086
21 | GCGGCTGA | -0.0367 ± 0.014
22 | TCCGCAAA | 0.0333 ± 0.071
23 | CGGATTAG | -0.0405 ± 0.062
24 | AAGATCTA | 0.0852 ± 0.0097
25 | AACGTCCA | -0.285 ± 0.059

Row | Sequence | PBM E-score of 8-mer
26 | GTTATAGA | -0.111 ± 0.052
27 | AAAAAATG | -0.186 ± 0.043
28 | CGGCGGTA | -0.196 ± 0.014
29 | GGGAAGGA | -0.207 ± 0.0023
30 | CCAACGGC | -0.019 ± 0.021
31 | ATCTAACA | 0.243 ± 0.0094
32 | ATGGAGCG | -0.0956 ± 0.049
33 | TAGTTCAA | -0.0424 ± 0.031
34 | CCTATACG | 0.06 ± 0.029
35 | AGTGGTCG | -0.0805 ± 0.033
36 | GGAGTCCC | -0.118 ± 0.05
37 | AACTCACG | 0.106 ± 0.047
38 | TAGTGAGA | 0.278 ± 0.022
39 | GGGGCCGA | 0.0233 ± 0.033
40 | CTGTGGCA | 0.0868 ± 0.03
41 | TAGATCCA | -0.353 ± 0.058
42 | AAGGTACT | -0.197 ± 0.047
43 | ACTATCAC | 0.335 ± 0.04
44 | CGTGATTC | 0.0514 ± 0.0056
45 | ACGGGGGC | 0.031 ± 0.014
46 | TCGCCACA | 0.289 ± 0.0067
47 | CATAGTAA | -0.229 ± 0.079
48 | CCTTTGAA | -0.144 ± 0.025
49 | ACTCCCCT | -0.213 ± 0.088
50 | CGCCACAA | 0.00315 ± 0.034

Row | Sequence | PBM E-score of 8-mer
51 | GATCCTAC | -0.232 ± 0.0069
52 | CAAAGTGC | 0.249 ± 0.0043
53 | AGGTGTAA | 0.47639 ± 0.00041
54 | ATCTCTGG | -0.134 ± 0.017
55 | CGCTGGTC | 0.107 ± 0.032
56 | TGGTGACA | 0.409 ± 0.01
57 | CCAGACAG | 0.00077 ± 0.00041
58 | ATCGCGAT | 0.38 ± 0.014
59 | ATCTGGCG | 0.122 ± 0.068
60 | ACTCGTAA | -0.0576 ± 0.11
61 | CCTGTTAG | 0.271 ± 0.014
62 | CCAACAGC | 0.197 ± 0.048
63 | GAGGCGGA | -0.0991 ± 0.032
64 | AAGTACCC | -0.182 ± 0.0063
65 | CATATATC | -0.239 ± 0.019
66 | GCCCACGA | -0.119 ± 0.039
67 | AATACCCG | -0.169 ± 0.034
68 | CTGGCAAA | -0.112 ± 0.084
69 | ATCTTCGA | -0.122 ± 0.046
70 | GTGCGATA | 0.4351 ± 0.0025
71 | ACTCCAAT | -0.0298 ± 0.0073
72 | GCGTGAAA | 0.4552 ± 0.0024
73 | TCCTCCAA | -0.203 ± 0.012
74 | CTGAACTC | 0.0605 ± 0.035
75 | GAGTGTGC | 0.2606 ± 0.00088

Row | Sequence | PBM E-score of 8-mer
76 | ATGACTGC | -0.165 ± 0.0095
77 | ACTATGTA | 0.0559 ± 0.034
78 | ATGACTTG | -0.00579 ± 0.055
79 | CCCCAAGC | -0.0824 ± 0.04
80 | CGGCCGAG | -0.158 ± 0.0019
81 | ACAACGCC | 0.121 ± 0.0096
82 | TCAATAGA | -0.0309 ± 0.03
83 | GAGAATGC | 0.0915 ± 0.015
84 | CCTAGGGA | -0.233 ± 0.015
85 | CACAATTC | 0.282 ± 0.039
86 | GAGCGCCC | -0.177 ± 0.019
87 | TACATAAA | -0.175 ± 0.11
88 | AGCGAGTC | 0.0123 ± 0.0052
89 | AGTGCAAG | 0.149 ± 0.018
90 | ATGGCCTC | -0.263 ± 0.037
91 | AACCGAGC | -0.124 ± 0.016
92 | GTACGGTA | -0.1632 ± 0.0011
93 | GGCAGGAA | 0.054 ± 0.081
94 | ATCCGAAA | -0.0422 ± 0.023
95 | ACCAAGAC | 0.0491 ± 0.0073
96 | GTAGGGAC | -0.259 ± 0.04
97 | ACTGGTGC | 0.111 ± 0.026
98 | GAGGCGGC | 0.00737 ± 0.076
99 | TAGCCTAA | -0.0562 ± 0.0074
100 | CATATGAG | -0.0783 ± 0.018

Row | Sequence | PBM E-score of 8-mer
101 | AGCTATAT | 0.0347 ± 0.08
102 | CGCTGAAA | -0.111 ± 0.018
103 | CCCTTCCC | -0.226 ± 0.031
104 | TCAATTCA | 0.0638 ± 0.11
105 | GCCTCCTA | -0.0651 ± 0.085
106 | GGGCGAGA | 0.194 ± 0.052
107 | CTCTTCGA | 0.0447 ± 0.035
108 | CCGCGAGG | 0.0357 ± 0.059
109 | AGTCTCCC | -0.191 ± 0.04
110 | AGCGGACG | -0.118 ± 0.011
111 | AAAAAACC | -0.116 ± 0.029
112 | TGGGACCA | -0.185 ± 0.03
113 | AGAGCCAA | -0.0363 ± 0.023
114 | GCTGGACA | 0.0434 ± 0.024
115 | CTCCATAA | -0.321 ± 0.0041
116 | CTAAGACC | -0.171 ± 0.056
117 | AAGTGCCG | 0.289 ± 0.025
118 | GCGTGCAA | 0.146 ± 0.044
119 | CAGGAAGC | -0.312 ± 0.045
120 | AGATGTCC | -0.322 ± 0.016
121 | AGTGCCAC | 0.287 ± 0.014
122 | AAAACCGG | -0.14 ± 0.039
123 | AAGCTGGG | -0.0961 ± 0.045
124 | GAGTAAAA | -0.0459 ± 0.021
125 | ACTAAATG | 0.0104 ± 0.0037

Row | Sequence | PBM E-score of 8-mer
126 | AAAACTGG | 0.0465 ± 0.035
127 | ACCTCGCC | 0.34 ± 0.0081
128 | TATACATA | -0.073 ± 0.021
129 | CGAAGCAC | -0.076 ± 0.014
130 | ACAGCACT | 0.15 ± 0.015
131 | CGGGACAC | 0.16 ± 0.057
132 | CAATGTTA | -0.135 ± 0.023
133 | GCTTTCTA | -0.0965 ± 0.11
134 | AACTAATT | -0.293 ± 0.049
135 | CGTCGTTA | 0.0788 ± 0.011
136 | CACACAAG | 0.113 ± 0.06
137 | GGCGACCA | -0.156 ± 0.027
138 | GGCTGTTA | 0.0706 ± 0.024
139 | GTAGAACA | -0.0515 ± 0.048
140 | AATAGCCT | -0.00864 ± 0.017
141 | ACAGCATG | 0.0977 ± 0.0076
142 | GCTTTAGA | -0.109 ± 0.055
143 | AGGATATA | -0.188 ± 0.019
144 | CCAGTGTA | -0.108 ± 0.014
145 | CACACATC | 0.381 ± 0.035
146 | CCATCTGA | -0.00559 ± 0.0058
147 | CAAGCAAA | -0.0897 ± 0.031
148 | TTCAAAAA | -0.195 ± 0.071
149 | TAAGCTTA | -0.274 ± 0.053
150 | TGGAGACA | -0.115 ± 0.046

Row | Sequence | PBM E-score of 8-mer
151 | GTCGGACA | -0.198 ± 0.053
152 | TCAGTTAA | -0.0558 ± 0.064
153 | ACTGCATG | -0.193 ± 0.049
154 | AACGCCGC | 0.0722 ± 0.024
155 | CCCTATAG | -0.114 ± 0.033
156 | GTAGTAAC | 0.0291 ± 0.046
157 | GATCCAAC | 0.00494 ± 0.035
158 | CGTTTACC | -0.0859 ± 0.018
159 | CTGAGCAG | -0.226 ± 0.037
160 | CTTACAAC | 0.0594 ± 0.04
161 | CGGGTGAC | 0.317 ± 0.0073
162 | GCGACGCC | 0.262 ± 0.048
163 | AACTTCCT | -0.146 ± 0.014
164 | CAGTAGAA | -0.0987 ± 0.033
165 | CTATTCTA | -0.0358 ± 0.035
166 | AGAATATG | 0.00662 ± 0.0032
167 | GCCGTCAC | 0.293 ± 0.066
168 | CACAAGGA | -0.215 ± 0.06
169 | ACTGGGGG | -0.277 ± 0.017
170 | AATTGCGG | -0.0866 ± 0.029
171 | GTTCGAGA | 0.00126 ± 0.025
172 | ATAAAGCC | -0.221 ± 0.014
